Measured values taken from the supplement of paper PMC4723716.
± gives the uncertainty stated by the source. Over roughly 9,900 compounds, “viability index relative to DMSO control” has its median near 1; the lowest 2% begin near 0.85. This is one part of the list.

Each compound was assayed on Plasmodium falciparum NF54 stage V gametocytes (assay: viability index relative to DMSO control (fraction); higher = less gametocyte killing). Settings: 2.5 µM, library set: Broad Institute DOS, incubation time: 72 h.
Summary of the method: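 In 1,536-well plates, 10 µl of serum-free medium holding P. falciparum NF54 stage V gametocytes (0.75% gametocytemia, 1.25% hematocrit) received compound at 2.5 µM for 72 hr at 37°C in low oxygen. After one to two hours with 3 µl of 2.5 µM MitoTracker Red CMXRos containing 0.13% saponin, red particles of 20–70 µm2 were counted in a single field per well. Viability index is reported as the particle count over the plate mean of wells treated with solvent only.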

Row | Compound | viability index
1 | O=C(CCN1CCCCC1)N[C@H]1CC[C@@H](CC(=O)N2CCC(Cc3ccccc3)CC2)O[C@@H]1CO | 1.116 ± 0.0016
2 | O=C(N[C@@H]1C=C[C@H](CC(=O)N2CCC(Cc3ccccc3)CC2)O[C@H]1CO)c1cnccn1 | 0.958 ± 0.064
3 | C[C@@H]1CCCCO[C@H](CN(C)C(=O)Nc2ccc(C(F)(F)F)cc2)[C@H](C)CN([C@H](C)CO)C(=O)c2cc(NS(=O)(=O)c3cn(C)cn3)ccc2O1 | 1.08 ± 0.11
4 | C[C@@H]1CN([C@@H](C)CO)C(=O)CCCn2nncc2CO[C@@H]1CN(C)C(=O)NC1CCCC1 | 1.01 ± 0.082
5 | N#Cc1cccc(-c2ccc3c(c2)[C@H]2[C@H](CCN2C(=O)CN2CCOCC2)[C@@H](CO)N3)c1 | 1.087 ± 0.0067
6 | CNC[C@@H]1Oc2ccc(NC(=O)CCC(F)(F)F)cc2C(=O)N([C@H](C)CO)C[C@@H]1C | 1.03 ± 0.01
7 | COc1cccc(S(=O)(=O)N2C[C@@H](O)COC[C@H]3O[C@H](CC(=O)NCCCN4CCOCC4)CC[C@@H]32)c1 | 1.08 ± 0.073
8 | O=S(=O)(c1cccc(F)c1)N1CC[C@@H]2[C@H]1c1cc(C#Cc3ccccc3F)ccc1N[C@@H]2CO | 1.062 ± 0.0015
9 | CN1C(=O)c2cc(NC(=O)c3cccc(F)c3)ccc2OC[C@H]2O[C@@H](CC(=O)NCc3ccccc3Cl)CC[C@H]21 | 1 ± 0.16
10 | C[C@@H]1CN([C@@H](C)CO)S(=O)(=O)c2ccc(C#CC(C)(C)O)cc2O[C@H]1CN(C)Cc1ccc(F)cc1 | 0.896 ± 0.032
11 | O=C(CN1CCOCC1)N1CCCCN2[C@H](CO)[C@H](c3ccc(Br)cc3)[C@H]2C1 | 0.989 ± 0.016
12 | COc1ccccc1CNC(=O)C[C@@H]1C[C@H]2c3cc(NC(=O)C4CCC4)ccc3O[C@H]2[C@@H](CO)O1 | 1.07 ± 0.086
13 | O=C([C@@H]1N[C@@H]2c3ccc(-c4ccc(F)cc4)c(=O)n3C[C@@H]2[C@H]1CO)N1CCc2ccccc2C1 | 1.06 ± 0.055
14 | CN(C)CC(=O)N1[C@@H](C#N)[C@@H](c2ccccc2-c2ccc(C(=O)N(C)C)cc2)[C@@H]1CO | 1.11 ± 0.024
15 | COc1ccc2c3c([nH]c2c1)[C@H](CO)N(C[C@]31CN(C1)S(=O)(=O)c1cccs1)C(C)=O | 0.938 ± 0.043
16 | O=C(Cc1ccccn1)N1[C@@H]2CNc3ccccc3[C@@H]2[C@@H]1CO | 1 ± 0.029
17 | CC(C)NC(=O)NCC[C@H]1CC[C@H](NS(=O)(=O)c2ccc(Oc3ccccc3)cc2)[C@H](CO)O1 | 1.14 ± 0.02
18 | Cc1ccc(S(=O)(=O)Nc2ccc3c(c2)C(=O)N([C@@H](C)CO)C[C@@H](C)[C@@H](CN(C)S(=O)(=O)c2cccs2)OCCCC[C@@H](C)O3)cc1 | 1.13 ± 0.23
19 | CCC(=O)N1C[C@H](O)COC[C@@H]2O[C@@H](CC(=O)NCc3ccc(Oc4ccccc4)cc3)CC[C@H]21 | 1.07 ± 0.039
20 | C[C@@H]1CN([C@H](C)CO)C(=O)CCCn2cc(nn2)CO[C@H]1CN(C)C(=O)Nc1cccc(C(F)(F)F)c1 | 0.996 ± 0.07
21 | N#C[C@H]1N[C@H](CO)[C@@H]1c1ccc(/C=C/c2ccccc2)cc1 | 1.104 ± 0.005
22 | C[C@H](CO)N1C[C@H](C)[C@H](CN(C)Cc2ccccc2C(F)(F)F)OCc2ccccc2-c2ccccc2C1=O | 1 ± 0.015
23 | Cc1cccc(-c2ccc([C@H]3[C@@H](CO)N4C(=O)CN(C(=O)c5ccc6c(c5)OCO6)C[C@@H]34)cc2)c1 | 1.04 ± 0.023
24 | O=C1CCCn2cc(nn2)COCC2CCCN12 (stereo unspecified) | 1.01 ± 0.044

Row | Compound | viability index
25 | CC(C)[C@H]1C(=O)N[C@@H](c2ccc(F)cc2)C/C=C/C[C@H](C)Oc2ccccc2C(=O)N1C.CC(C)[C@H]1C(=O)N[C@@H](c2ccc(F)cc2)C/C=C\C[C@H](C)Oc2ccccc2C(=O)N1C | 1.07 ± 0.019
26 | CN1C(=O)c2cc(NC(=O)c3cccc(Cl)c3)ccc2OC[C@H]2O[C@H](CC(=O)NC3CCCCC3)CC[C@H]21 | 1.02 ± 0.043
27 | O=C(NC[C@H]1[C@H](c2ccccc2)[C@@H](CO)N1Cc1cccnc1)c1ccccn1 | 1.09 ± 0.1
28 | C[C@@H]1CN([C@H](C)CO)C(=O)CCCn2nncc2CO[C@@H]1CN(C)CC1CCCCC1 | 1.03 ± 0.032
29 | CCCN(C)C[C@@H]1OCCCC[C@@H](C)Oc2ccc(NC(=O)CCCN(C)C)cc2C(=O)N([C@H](C)CO)C[C@H]1C | 1.1 ± 0.16
30 | COc1ccc2c3c([nH]c2c1)[C@H](CO)N(C[C@]31CCN(CC1)C(=O)c1cnccn1)C(=O)NC(C)C | 1.01 ± 0.018
31 | CCCNC(=O)N1CC(=O)N2[C@H](CO)[C@H](c3ccc(-c4ccc(F)cc4)cc3)[C@H]2C1 | 1.01 ± 0.018
32 | C[C@@H]1CN([C@@H](C)CO)C(=O)c2ccccc2-c2ccccc2CO[C@H]1CN(C)C(=O)[C@H]1CCCN1C | 1.05 ± 0.03
33 | CCC(=O)Nc1ccc2c(c1)C(=O)N(C)C[C@H](OC)[C@@H](C)CN(C(=O)Cc1cccnc1)[C@H](C)CO2 | 1.11 ± 0.083
34 | CO[C@H](CN(C)Cc1cc(F)ccc1F)[C@H](C)CN([C@@H](C)CO)S(=O)(=O)c1ccc(C)cc1 | 1.07 ± 0.12
35 | O=C(c1cccnc1)N1CC(=O)N2[C@H](CO)[C@H](c3ccc(-c4ccccc4F)cc3)[C@H]2C1 | 1.04 ± 0.041
36 | C/C=C/c1ccc([C@H]2[C@@H](CO)N(CCC(F)(F)F)C23CN(C(=O)CC2CC2)C3)cc1 | 0.991 ± 0.085
37 | CCC(=O)N1[C@H](C#N)[C@@H](c2ccccc2-c2ccccc2)[C@@H]1CO | 1.14 ± 0.039
38 | COc1ccc(C(=O)N2C[C@@H]3[C@H](c4ccccc42)[C@H](CO)N3Cc2ccccc2Cl)cc1 | 1 ± 0.04
39 | CC[C@H]1C/C=C\C[C@@H](C(C)C)NC(=O)CCC(=O)N1 | 1 ± 0.096
40 | CO[C@@H]1CC[C@@H]2CCN(C)C(=O)[C@@H](C)CN(C)C(=O)c3cc(C#N)ccc3OC[C@H]1O2 | 0.976 ± 0.1
41 | C/C=C/c1ccc([C@@H]2[C@@H](C#N)N(c3nc(CC)cs3)[C@@H]2CO)cc1 | 1.09 ± 0.013
42 | C[C@@H]1CN([C@H](C)CO)C(=O)CCCn2nncc2CO[C@@H]1CN(C)Cc1cccc2c1OCCCO2 | 0.98 ± 0.043
43 | COc1cccc(S(=O)(=O)N2[C@@H]3CNC[C@H]2[C@@H]3c2ccc(/C=C/c3ccccc3)cc2)c1 | 0.99 ± 0.022
44 | C[C@H](CO)N1C[C@H](C)[C@@H](CN(C)Cc2ccc(Cl)c(Cl)c2)Oc2ccc(NC(=O)CCCN(C)C)cc2C1=O | 0.916 ± 0.13
45 | N#Cc1ccc(-c2ccc([C@H]3[C@H](CO)N4C(=O)CNC[C@@H]34)cc2)cc1 | 1.05 ± 0.065
46 | Cc1ccccc1-c1ccc([C@@H]2[C@H]3CNC[C@@H]2N3S(=O)(=O)c2ccccc2)cc1 | 1.088 ± 0.0098
47 | O=C(C[C@H]1CC[C@@H]2NC[C@H](O)COC[C@H]2O1)NC1Cc2ccccc2C1 | 1.05 ± 0.044
48 | CN1C(=O)c2cc(NC(=O)c3cccc(C(F)(F)F)c3)ccc2OC[C@@H]2O[C@@H](CC(=O)NCCN3CCCC3)CC[C@@H]21 | 0.919 ± 0.11

Row | Compound | viability index
49 | CN1C(=O)c2cc(NC(=O)c3ccc(F)c(F)c3)ccc2OC[C@H]2O[C@@H](CC(=O)Nc3ccc4c(c3)COC4)CC[C@@H]21 | 1.038 ± 0.0069
50 | COc1cccc(C#Cc2ccc([C@H]3[C@H](CO)N4C(=O)CN(C(=O)Cc5cccnc5)C[C@@H]34)cc2)c1 | 0.945 ± 0.048
51 | O=C(NC1CCCCC1)N1CC(=O)N2[C@@H](CO)[C@H](c3ccc(-c4ccncc4)cc3)[C@@H]2C1 | 1.05 ± 0.043
52 | COc1ccc(NC(=O)Nc2cccc3c2O[C@H](CN(C)Cc2ccc(C(=O)O)cc2)[C@@H](C)CN([C@H](C)CO)C3=O)cc1 | 0.985 ± 0.14
53 | CCCNC(=O)N1[C@H](CO)[C@H](c2ccccc2-c2cccc(C)c2)[C@@H]1C#N | 1.06 ± 0.18
54 | O=C(C1CCCCC1)N1CC(=O)N2[C@H](C1)[C@H](c1ccc(-c3ccccc3F)cc1)[C@@H]2CO | 1.01 ± 0.014
55 | CCCC(=O)Nc1ccc2c(c1)C(=O)N(C)C[C@@H](OC)[C@H](C)CN(Cc1cc(-c3ccccc3)on1)[C@H](C)CO2 | 1.04 ± 0.067
56 | C[C@@H]1CCCCO[C@@H](CN(C)C(=O)Nc2ccc(C(F)(F)F)cc2)[C@H](C)CN([C@H](C)CO)C(=O)c2cc(NS(=O)(=O)c3cn(C)cn3)ccc2O1 | 1.13 ± 0.081
57 | C[C@@H](O)C#Cc1ccc([C@H]2[C@@H](CO)N3CCCCN(CC4CC4)C[C@@H]23)cc1 | 1.06 ± 0.059
58 | C/C=C/c1ccc([C@H]2[C@H](CO)N3C(=O)CN(C(=O)Nc4cccc(OC)c4)C[C@@H]23)cc1 | 1.02 ± 0.03
59 | C[C@@H]1CN([C@H](C)CO)C(=O)c2ccccc2-c2ccccc2CO[C@H]1CN(C)S(=O)(=O)c1cccs1 | 0.934 ± 0.052
60 | COc1ccccc1NC(=O)C[C@H]1CC[C@H]2[C@@H](COc3ccc(NS(C)(=O)=O)cc3C(=O)N2C)O1 | 1.1 ± 0.037
61 | O=C(CCN1CCCCC1)N[C@@H]1CC[C@@H](CC(=O)N2CCC(Cc3ccccc3)CC2)O[C@H]1CO | 0.992 ± 0.03
62 | COCC(=O)N1[C@@H]2CN(C(=O)c3cccnc3)c3ccccc3[C@@H]2[C@@H]1CO | 1.05 ± 0.064
63 | CC[C@H]1C/C=C\C[C@H](c2ccc(OC)cc2OC)NC(=O)[C@H](C)CC(=O)N1 | 0.972 ± 0.098
64 | C[C@H](CO)N1C[C@H](C)[C@@H](CN(C)Cc2ccc(Cl)c(Cl)c2)OCCCC[C@H](C)Oc2ccc(NS(=O)(=O)c3cccs3)cc2C1=O | 1.029 ± 0.0071
65 | COc1ccc(NC(=O)N(C)C[C@H]2Oc3ccc(NC(=O)Nc4cccc5ccccc45)cc3CC(=O)N([C@@H](C)CO)C[C@H]2C)cc1 | 0.926 ± 0.11
66 | COCC#Cc1ccc([C@H]2[C@H]3CN(C(=O)CN4CCOCC4)CC(=O)N3[C@H]2CO)cc1 | 1.01 ± 0.12
67 | COCC(=O)N1[C@@H](C#N)[C@H](c2ccccc2-c2ccccc2F)[C@@H]1CO | 1.07 ± 0.014
68 | CCc1cnc(N2[C@H](CO)[C@H](c3ccc(C4=CCCCC4)cc3)[C@@H]2C#N)s1 | 1.09 ± 0.14
69 | COc1ccccc1CNC(=O)C[C@@H]1C[C@@H]2c3cc(NC(=O)C4CCC4)ccc3O[C@@H]2[C@H](CO)O1 | 0.961 ± 0.0032
70 | O=C(C[C@@H]1C=C[C@@H](NC(=O)Nc2cccc(F)c2)[C@H](CO)O1)NCC1CCCCC1 | 0.927 ± 0.071
71 | CO[C@H]1CN(C)C(=O)c2cc(NC(=O)Nc3c(C)noc3C)ccc2OC[C@H](C)NC[C@@H]1C | 0.983 ± 0.071
